Among all 310,000 compounds or so, about 2,200 (0.71%) showed an effect of 50% or more. Effects have a minus sign here. The list shows a part of the results.
Target: human ether-à-go-go-related gene (hERG) potassium channel (human, UniProt Q12809)
Test: primary screen, population patch clamp on CHO cells stably expressing hERG

human ether-à-go-go-related gene (hERG) potassium channel, sequence (Q12809 whole entry, looked up): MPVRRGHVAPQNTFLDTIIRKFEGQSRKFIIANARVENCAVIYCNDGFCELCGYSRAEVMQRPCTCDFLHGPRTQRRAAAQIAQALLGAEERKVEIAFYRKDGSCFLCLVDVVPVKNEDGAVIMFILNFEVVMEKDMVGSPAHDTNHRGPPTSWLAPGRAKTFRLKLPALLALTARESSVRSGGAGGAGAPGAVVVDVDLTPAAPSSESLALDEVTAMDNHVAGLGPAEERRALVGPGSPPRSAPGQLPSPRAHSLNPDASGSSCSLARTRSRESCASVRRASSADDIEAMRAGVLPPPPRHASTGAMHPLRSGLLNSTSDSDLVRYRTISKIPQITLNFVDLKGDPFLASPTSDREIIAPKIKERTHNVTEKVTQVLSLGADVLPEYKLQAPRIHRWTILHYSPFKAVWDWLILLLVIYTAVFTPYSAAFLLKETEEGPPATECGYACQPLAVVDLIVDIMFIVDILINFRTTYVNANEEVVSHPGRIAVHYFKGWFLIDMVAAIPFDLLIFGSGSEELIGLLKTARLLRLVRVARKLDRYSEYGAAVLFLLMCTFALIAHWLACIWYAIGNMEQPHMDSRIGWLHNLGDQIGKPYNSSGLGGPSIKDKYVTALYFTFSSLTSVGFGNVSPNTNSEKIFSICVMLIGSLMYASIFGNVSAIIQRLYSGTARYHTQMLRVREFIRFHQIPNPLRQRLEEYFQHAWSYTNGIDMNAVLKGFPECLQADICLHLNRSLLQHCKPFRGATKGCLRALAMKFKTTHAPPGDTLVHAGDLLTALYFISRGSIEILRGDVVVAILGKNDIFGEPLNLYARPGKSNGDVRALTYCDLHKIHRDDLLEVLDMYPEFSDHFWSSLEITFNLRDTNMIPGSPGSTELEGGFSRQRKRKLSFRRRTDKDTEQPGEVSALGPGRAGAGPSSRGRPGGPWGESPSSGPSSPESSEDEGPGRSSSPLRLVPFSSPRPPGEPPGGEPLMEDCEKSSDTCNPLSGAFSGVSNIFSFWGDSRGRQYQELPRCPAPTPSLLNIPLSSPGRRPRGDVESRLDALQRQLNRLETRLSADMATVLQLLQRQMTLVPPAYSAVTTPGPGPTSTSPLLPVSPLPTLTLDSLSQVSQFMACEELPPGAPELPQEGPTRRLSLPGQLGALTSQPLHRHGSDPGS

| SMILES | hERG current change (%, negative = inhibition) at 1uM |
| --- | --- |
| Fc1ccccc1/C=N/Nc1ncnc2ccccc12 | 10.9% |
| Cc1cc(C)nc(SC2=CS(=O)(=O)c3ccccc32)n1 | 8.75% |
| O=C(COC(=O)c1nc(Cl)ccc1Cl)NNC(=O)c1ccccc1 | 15.9% |
| COC(=O)CSc1ncnc2c1sc1nc3c(cc12)COC(C)(C)C3 | 18.3% |
| CCc1cc(-c2n[nH]c(CCC(=O)O)c2-c2nc3ccccc3n2C)c(O)cc1O | 7.37% |
| O=C(O)c1ccc(CSc2nnc(-c3ccc(Cl)cc3)o2)cc1 | 19.6% |
| COc1cccc(COC(=O)c2ccc3c(=O)n4c(nc3c2)CCC4)c1OC | 18.1% |
| O=[N+]([O-])c1ccc2nc(CCCO)[nH]c2c1 | 14.9% |
| COCCn1nnnc1CN1CCN(C(=O)c2ccco2)CC1 | 11.3% |
| O=C(NCCc1ccccc1)c1noc2c1CCc1ccccc1-2 | 7.76% |
| N/C(=N\OC(=O)c1ccc2c(c1)OCO2)c1ccc(Cl)cc1 | -3.53% |
| COc1ccc(CCN=C(N)NS(=O)(=O)c2ccc(OC)cc2)cc1 | 16.3% |
| CCOC(Cn1cc(C)c(=O)[nH]c1=O)OCC | 2.6% |
| COC(=O)C1=C(c2ccc(OCc3ccccc3)cc2)C[C@@H]2CC[C@H]1N2C(=O)NCCCc1ccccc1 | 12.2% |
| Cc1ccc2[nH]c3c(=O)n(CCN4CCNCC4)cnc3c2c1 | 18.5% |
| Cn1c(=O)c2c(nc(N3CCc4ccccc4C3)n2Cc2ccc(Br)cc2)n(C)c1=O | 8.46% |
| OC(CN1CCN(c2ccc(C(F)(F)F)cn2)CC1)c1ccccc1 (stereo not drawn) | -19.6% |
| COn1c(SCC(N)=O)nc2ccccc2c1=O | 6.41% |
| O=S(=O)(Nc1ccc(-n2cccc2)cc1)c1ccc(Cl)c(Cl)c1 | 12.3% |
| COc1cc(CN2CC=C(c3ccc(F)cc3)CC2)cc(OC)c1 | 12.3% |
| COc1ccccc1NC(=O)c1ccc2nc(C)c(C)nc2c1 | 2.94% |
| CCC1Oc2ccc(C)cc2N(CC(=O)NCCCN2CCCCC2C)C1=O (stereo not drawn) | 9.82% |
| COCCN1Cc2cccc(C(=O)NC(C)c3cccs3)c2C1=O (stereo not drawn) | 16.7% |

| SMILES | hERG current change (%, negative = inhibition) at 1uM |
| --- | --- |
| CCN1CCN(c2c(Cl)cccc2NC(=O)c2ccc3c(c2)OCCO3)CC1 | -4.39% |
| CCN(CC)S(=O)(=O)c1ccc(Cl)c(C(=O)NCCN2CCOCC2)c1.Cl | 9.01% |
| CCOc1ccc(CNS(=O)(=O)c2cccs2)cc1OCC | 12.7% |
| CCOC(=O)C(C)/C(C)=N\Nc1ccc([N+](=O)[O-])cc1[N+](=O)[O-] (stereo not drawn) | -6.1% |
| CCOC(=O)C1CCN(S(=O)(=O)c2ccc(OC)c(Cl)c2)CC1 | 13% |
| O=C1CSC(c2ccccn2)N1c1ccc(Br)cc1 (stereo not drawn) | 8.41% |
| CC(C)(C)n1nnnc1C(c1ccc2ncccc2c1)N1CCSCC1 (stereo not drawn) | -2.81% |
| O=C(N/C(=C/c1cccs1)C(=O)N1CCCCCC1)c1ccccc1 | -1.95% |
| CCOC(=O)c1ccc(N/C=C2\CCCCC2=O)cc1 | 13.9% |
| COc1ccc2[nH]cc(/C=N/NS(=O)(=O)c3ccc(C)cc3)c2c1 | -1.82% |
| CC(C)CCC(C)NC(=O)CN1C(=O)NC(C)(c2ccc3ccccc3c2)C1=O (stereo not drawn) | 14.5% |
| O=C(NCc1ccccn1)c1nn(-c2ccccc2)c(=O)c2ccccc12 | 4.59% |
| CCN(CC(=O)Nc1c(F)cccc1F)C(=O)CSc1ccccc1 | 15.9% |
| CN1C(=O)C(Cc2cccs2)C(=O)N(C)C1=O | 15.2% |
| O=C(CN1CCN(c2ccccc2)CC1)Nc1cccc([N+](=O)[O-])c1 | 11% |
| CC(=O)C1=C(O)C(=O)N(c2ccc(O)cc2)C1c1cccc([N+](=O)[O-])c1 (stereo not drawn) | 18.2% |
| CCN(CC)C1CCN(C(=O)c2cc(COc3ccc(F)cc3Cl)on2)C1 (stereo not drawn) | -21.2% |
| CCOc1ccccc1OCC(=O)N/N=C(\C)Cc1ccc(OC)cc1 | 6.38% |
| CC(=O)N/C(=C/c1ccc([N+](=O)[O-])cc1)C(=O)O | 13.2% |
| C=CCN(C(=O)CSc1nc2c(sc3ccccc32)c(=O)n1CCN(CC)CC)c1ccccc1 | 8.17% |
| CCCOc1ccc(/C=C2/C(=O)ON=C2C)cc1OCC | 13.9% |
| COc1cc(C(=O)/C=C/c2cccnc2)ccc1O | 12.1% |
